From the antibiotic and cytotoxicity screens of Wong et al. (2023)
The list shows a part of the results.

Key:
HSkMC = human skeletal muscle cells; assay: cytotoxicity call (relative viability < 0.9); conditions: 10 µM
HepG2 = assay: cytotoxicity call (relative viability < 0.9); conditions: 10 µM
S. aureus RN4220 = assay: growth inhibition call (relative growth <= 0.2); conditions: 50 µM

Row | Structure (SMILES) | cytotoxicity call (HSkMC) | cytotoxicity call (HepG2) | growth inhibition call (S. aureus RN4220)
1 | C[C@@H]1CCCCO[C@@H](CN(C)Cc2ccc(Cl)c(Cl)c2)[C@H](C)CN([C@H](C)CO)C(=O)c2cc(NC(=O)Cc3ccccc3)ccc2O1 | active | inactive | inactive
2 | C[C@H]1CN([C@@H](C)CO)C(=O)Cc2cc(NC(=O)c3ccncc3)ccc2O[C@@H]1CN(C)C(=O)NC1CCCCC1 | inactive | inactive | inactive
3 | C[C@H](CO)N1C[C@H](C)[C@H](CN(C)C(=O)Nc2ccc(F)cc2)Oc2c(NS(C)(=O)=O)cccc2C1=O | inactive | inactive | inactive
4 | CNC[C@H]1Oc2cc(C#CCN(C)C)ccc2S(=O)(=O)N([C@H](C)CO)C[C@@H]1C | inactive | inactive | inactive
5 | O=C(C[C@@H]1C[C@H]2c3cc(NS(=O)(=O)c4ccc(F)cc4)ccc3O[C@H]2[C@H](CO)O1)NCc1ccccc1 | inactive | inactive | inactive
6 | COC[C@@H]1CN(C)N=C(C2CC2)O1 | inactive | inactive | inactive
7 | C[C@H]1CN([C@@H](C)CO)C(=O)Cc2cc(NS(C)(=O)=O)ccc2O[C@@H]1CN(C)S(=O)(=O)c1ccc(Cl)cc1 | inactive | inactive | inactive
8 | COCC(=O)Nc1ccc2c(c1)OC[C@@H](C)N(Cc1ccccc1OC)C[C@@H](C)[C@H](OC)CN(C)C2=O | inactive | inactive | inactive
9 | CC(C)=C[C@H]1[C@@H](c2nc3ccc(Br)cc3[nH]2)C1(C)C | inactive | inactive | inactive
10 | C[C@H](CO)N1C[C@H](C)[C@@H](CN(C)S(=O)(=O)c2cccs2)Oc2ccc(NS(=O)(=O)c3ccc(F)cc3)cc2C1=O | inactive | inactive | inactive
11 | CC(=O)OC[C@H]1O[C@@](COC(C)=O)(O[C@H]2O[C@H](COC(C)=O)[C@@H](OC(C)=O)[C@H](OC(C)=O)[C@H]2OC(C)=O)[C@@H](OC(C)=O)[C@@H]1OC(C)=O | inactive | inactive | inactive
12 | O=C(Nc1cccc2cccnc12)[C@@H]1[C@H](c2ccc(C(F)(F)F)cc2)CC(=O)N1C(=O)OCc1ccccc1 | inactive | inactive | inactive
13 | COc1cc(CO)c(CC(=O)NN)cc1OC | inactive | inactive | inactive
14 | CN(C)CC(=O)N[C@H]1CC[C@@H](CCNC(=O)C2CC2)O[C@H]1CO | inactive | inactive | inactive
15 | O=C1NC(=O)[C@@]2(CC[C@H](C(=O)O)C2)N1 | inactive | inactive | inactive
16 | C[C@@H]1CN([C@H](C)CO)C(=O)c2cc(C3=CCCC3)cnc2O[C@@H]1CN(C)S(=O)(=O)c1cn(C)cn1 | inactive | inactive | inactive
17 | C[C@H]1CN([C@@H](C)CO)C(=O)c2cccc(NS(C)(=O)=O)c2O[C@@H]1CN(C)S(=O)(=O)c1cccs1 | inactive | inactive | inactive
18 | Cc1ccc(S(=O)(=O)N(C)C[C@H]2Oc3c(NC(=O)C4CC4)cccc3C(=O)N([C@@H](C)CO)C[C@H]2C)cc1 | inactive | inactive | inactive
19 | C[C@H](CO)N1C[C@H](C)[C@H](CN(C)Cc2ccc3c(c2)OCO3)OCCCC[C@H](C)Oc2ccc(NC(=O)NC3CCCCC3)cc2C1=O | inactive | active | inactive

Row | Structure (SMILES) | cytotoxicity call (HSkMC) | cytotoxicity call (HepG2) | growth inhibition call (S. aureus RN4220)
20 | Nc1nc(N2CCC[C@@H](Cn3cc(CO)nn3)C2)c2c[nH]nc2n1 | inactive | inactive | inactive
21 | CNC(=O)[C@H]1O[C@@H](n2cnc3c(NCc4cccc(I)c4)ncnc32)[C@H](O)[C@@H]1O | inactive | inactive | inactive
22 | C[C@@H]1CN([C@@H](C)CO)C(=O)c2c(c3ccccc3n2C)-c2ccccc2CO[C@H]1CN(C)Cc1cccc(C(=O)Nc2ccccc2N)c1 | inactive | inactive | inactive
23 | C[C@H](CO)N1C[C@H](C)[C@@H](CN(C)C(=O)CN2CCOCC2)Oc2ncc(C3=CCCCC3)cc2C1=O | inactive | inactive | inactive
24 | C=CCC[C@@H](Cc1ccc(F)cc1)C(=O)OC[C@@H](Cc1c[nH]c2ccccc12)NC(=O)[C@@H](CC=C)CC(=O)N(CCO)Cc1ccccc1 | active | active | inactive
25 | C[C@H]1CCCCO[C@H](CN(C)C(=O)Nc2ccccc2)[C@@H](C)CN([C@@H](C)CO)C(=O)c2cc(NC(=O)Nc3ccc(F)cc3)ccc2O1 | inactive | active | inactive
26 | C[C@H](CO)N1C[C@H](C)[C@@H](CN(C)C(=O)Nc2ccc3c(c2)OCO3)Oc2ccc(NS(=O)(=O)c3cn(C)cn3)cc2C1=O | inactive | inactive | inactive
27 | CCS(=O)(=O)N[C@H]1C=C[C@@H](CC(=O)O)O[C@@H]1CO | inactive | inactive | inactive
28 | CN(C)CC(=O)N[C@H]1CC[C@H](CC(=O)O)O[C@@H]1CO | inactive | inactive | inactive
29 | C[C@@H]1CN([C@@H](C)CO)C(=O)Cc2cc(NS(=O)(=O)c3cn(C)cn3)ccc2O[C@@H]1CN(C)C(=O)NC1CCCCC1 | inactive | inactive | inactive
30 | O=C(C[C@@H]1CC[C@H]2[C@@H](COC[C@@H](O)CN2C(=O)c2ccncc2)O1)NC1CCC1 | inactive | inactive | inactive
31 | COc1cccc(-c2cn(CC[C@@H]3CC[C@@H](NC(=O)CN(C)C)[C@H](CO)O3)nn2)c1 | inactive | inactive | inactive
32 | COc1ccc([Si](C)(C)[C@H]2[C@H](CCO)O[C@@]3(C(=O)N(Cc4ccc(N5CCCCC5=O)cc4)c4ccccc43)[C@@H]2C)cc1 | inactive | inactive | inactive
33 | Cc1ccc(Oc2ccc(CN)cc2)cc1 | inactive | active | inactive
34 | C[C@H]1CN([C@@H](C)CO)C(=O)Cc2cc(NC(=O)Cn3cnnn3)ccc2O[C@@H]1CN(C)Cc1ccccc1 | inactive | inactive | inactive
35 | Cc1ccc(S(=O)(=O)Nc2ccc3c(c2)C(=O)N([C@@H](C)CO)C[C@H](C)[C@H](CN(C)S(=O)(=O)c2ccc(F)cc2)OCCCC[C@H](C)O3)cc1 | inactive | inactive | inactive
36 | COCC(=O)N1C[C@@H](C)[C@H](OC)CN(C)C(=O)c2cc(NC(=O)Nc3cccc(F)c3)ccc2OC[C@@H]1C | inactive | inactive | inactive
37 | C[C@@H]1CN([C@H](C)CO)C(=O)c2cc(-c3cncnc3)cnc2O[C@@H]1CN(C)C(=O)CN1CCOCC1 | inactive | inactive | inactive
38 | C[C@@H]1CN([C@H](C)CO)C(=O)c2cccc(NC(=O)Nc3ccc4c(c3)OCO4)c2O[C@H]1CN(C)C(=O)Nc1ccc(C(F)(F)F)cc1 | inactive | inactive | inactive

Row | Structure (SMILES) | cytotoxicity call (HSkMC) | cytotoxicity call (HepG2) | growth inhibition call (S. aureus RN4220)
39 | CC(C)n1nnc(CC(=O)NN)n1 | inactive | inactive | inactive
40 | COCC#Cc1cnc2c(c1)C(=O)N([C@@H](C)CO)C[C@H](C)[C@@H](CN(C)C(=O)Nc1ccccc1OC)O2 | inactive | inactive | inactive
41 | C[C@@H]1CN([C@@H](C)CO)C(=O)c2cc(NC(=O)CCC(F)(F)F)ccc2O[C@@H](C)CCCCO[C@H]1CN(C)Cc1ccncc1 | inactive | inactive | inactive
42 | Cc1ccc(S(=O)(=O)Nc2cccc3c2O[C@H](CN(C)S(=O)(=O)c2cccs2)[C@@H](C)CN([C@@H](C)CO)C3=O)cc1 | inactive | inactive | inactive
43 | C[C@@H]1CCCCO[C@@H](CN(C)C(=O)Nc2ccc(F)cc2)[C@H](C)CN([C@H](C)CO)C(=O)c2cc(NC(=O)c3ccccc3)ccc2O1 | inactive | inactive | inactive
44 | C[C@@H]1CCCCO[C@@H](CN(C)C(=O)Nc2cccc3ccccc23)[C@H](C)CN([C@H](C)CO)C(=O)c2cc(NS(=O)(=O)c3ccc(F)cc3)ccc2O1 | active | active | inactive
45 | C[C@@H]1CCCCO[C@@H](CN(C)Cc2ccncc2)[C@@H](C)CN([C@H](C)CO)C(=O)c2cc(NC(=O)Nc3ccc(C(F)(F)F)cc3)ccc2O1 | inactive | active | inactive
46 | Nc1nnnn1CC(=O)OCC(=O)Nc1ccccc1 | inactive | inactive | inactive
47 | COc1ccc(S(=O)(=O)Nc2ccc3c(c2)C(=O)N([C@H](C)CO)C[C@H](C)[C@@H](CN(C)C(=O)CCC(F)(F)F)OCCCC[C@@H](C)O3)cc1 | inactive | inactive | inactive
48 | C[C@@H]1CN([C@H](C)CO)C(=O)c2cc(NS(C)(=O)=O)ccc2O[C@@H](C)CCCCO[C@H]1CN(C)Cc1ccncc1 | inactive | inactive | inactive
49 | C[C@H](CO)N1C[C@H](C)[C@@H](CN(C)Cc2ccncc2)Oc2ccc(NC(=O)Nc3cccc4ccccc34)cc2CC1=O | inactive | active | inactive
50 | C[C@@H]1CCCCO[C@@H](CN(C)C(=O)Nc2ccc(F)cc2)[C@H](C)CN([C@@H](C)CO)C(=O)c2cc(NS(=O)(=O)c3ccc(F)cc3)ccc2O1 | inactive | inactive | inactive
51 | CC(C)NC(=O)N(C)C[C@H]1Oc2ccc(NC(=O)Nc3ccc4c(c3)OCO4)cc2CC(=O)N([C@@H](C)CO)C[C@@H]1C | inactive | inactive | inactive
52 | COc1cc(/C=C/C(=O)CC2=N/C(=N/c3ccc(OC)c(OC)c3)S[C@H](c3ccc(O)c(OC)c3)C2)ccc1O | inactive | inactive | inactive
53 | C[C@@H]1CN([C@@H](C)CO)C(=O)c2cc(NC(=O)Cn3cnnn3)ccc2O[C@@H]1CN(C)C(=O)Nc1cccc2ccccc12 | inactive | inactive | inactive
54 | C[C@@H]1CN([C@H](C)CO)C(=O)c2cc(NC(=O)CCN3CCOCC3)ccc2O[C@H]1CN(C)S(=O)(=O)c1cccs1 | inactive | inactive | inactive
55 | C[C@H](CO)N1C[C@H](C)[C@@H](CN(C)Cc2ccc(C(F)(F)F)cc2)Oc2ccc(NC(=O)CCCCCC(=O)Nc3ccccc3N)cc2CC1=O | inactive | inactive | inactive
56 | C[C@@H]1CCCCO[C@H](CN(C)Cc2ccncc2)[C@@H](C)CN([C@@H](C)CO)C(=O)c2cc(NC(=O)C3CCCCC3)ccc2O1 | inactive | inactive | inactive
